{"sequences": {"note": "Sequences of proteins named here, by UniProt entry; tags and fusion partners are left off. A change or cut given only in a name is not applied to a line headed by its entry.", "UniProt Q13838": "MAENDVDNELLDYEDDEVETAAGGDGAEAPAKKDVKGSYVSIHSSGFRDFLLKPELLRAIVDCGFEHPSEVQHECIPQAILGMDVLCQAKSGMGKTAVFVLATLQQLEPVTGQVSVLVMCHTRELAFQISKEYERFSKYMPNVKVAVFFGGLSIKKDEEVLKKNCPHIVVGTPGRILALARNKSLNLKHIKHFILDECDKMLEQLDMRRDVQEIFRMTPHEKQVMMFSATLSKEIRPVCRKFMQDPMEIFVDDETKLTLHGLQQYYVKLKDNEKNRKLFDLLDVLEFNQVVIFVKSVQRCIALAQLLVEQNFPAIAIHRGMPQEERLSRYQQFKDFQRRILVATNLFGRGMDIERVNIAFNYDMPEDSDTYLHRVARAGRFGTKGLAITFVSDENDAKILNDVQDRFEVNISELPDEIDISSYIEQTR"}, "source": "paper PMC4344508", "binders": {"B1": {"name": "Luzp4–6His (protein, UniProt Q9P127-1 1-313)", "chain": "MASFRKLTLSEKVPPNHPSRKKVNFLDMSLDDIIIYKELEGTNAEEEKNKRQNHSKKESPSRQQSKAHRHRHRRGYSRCRSNSEEGNHDKKPSQKPSGFKSGQHPLNGQPLIEQEKCSDNYEAQAEKNQGQSEGNQHQSEGNPDKSEESQGQPEENHHSERSRNHLERSLSQSDRSQGQLKRHHPQYERSHGQYKRSHGQSERSHGHSERSHGHSERSHGHSERSHGHSKRSRSQGDLVDTQSDLIATQRDLIATQKDLIATQRDLIATQRDLIVTQRDLVATERDLINQSGRSHGQSERHQRYSTGKNTITT"}, "B2": {"name": "Luzp4 aa 1–240 (35S-labelled truncation) (domain or fragment, UniProt Q9P127-1 1-240)", "chain": "MASFRKLTLSEKVPPNHPSRKKVNFLDMSLDDIIIYKELEGTNAEEEKNKRQNHSKKESPSRQQSKAHRHRHRRGYSRCRSNSEEGNHDKKPSQKPSGFKSGQHPLNGQPLIEQEKCSDNYEAQAEKNQGQSEGNQHQSEGNPDKSEESQGQPEENHHSERSRNHLERSLSQSDRSQGQLKRHHPQYERSHGQYKRSHGQSERSHGHSERSHGHSERSHGHSERSHGHSKRSRSQGDLVD", "modifications": "35S label"}, "B3": {"name": "35S-Luzp4 (protein, UniProt Q9P127-1 1-313)", "chain": "B1 chain", "modifications": "35S label"}, "B4": {"name": "Luzp4-myc (protein, UniProt Q9P127-1 1-313)", "chain": "B1 chain"}, "B5": {"name": "Luzp4 (construct of the co-IP with Nxf2) (protein, UniProt Q9P127-1 1-313)", "chain": "B1 chain"}, "B6": {"name": "Luzp4 aa 1–119 (35S-labelled truncation) (domain or fragment, UniProt Q9P127-1 1-119)", "chain": "MASFRKLTLSEKVPPNHPSRKKVNFLDMSLDDIIIYKELEGTNAEEEKNKRQNHSKKESPSRQQSKAHRHRHRRGYSRCRSNSEEGNHDKKPSQKPSGFKSGQHPLNGQPLIEQEKCSD", "modifications": "35S label"}, "B7": {"name": "Luzp4 aa 119–313 (35S-labelled truncation) (domain or fragment, UniProt Q9P127-1 119-313)", "chain": "DNYEAQAEKNQGQSEGNQHQSEGNPDKSEESQGQPEENHHSERSRNHLERSLSQSDRSQGQLKRHHPQYERSHGQYKRSHGQSERSHGHSERSHGHSERSHGHSERSHGHSKRSRSQGDLVDTQSDLIATQRDLIATQKDLIATQRDLIATQRDLIVTQRDLVATERDLINQSGRSHGQSERHQRYSTGKNTITT", "modifications": "35S label"}}, "key": {"GST-Nxf1:p15 [1]": {"target": "T1, GST-Nxf1:p15 (UniProt Q9UBU9)", "T1 sequence 1": "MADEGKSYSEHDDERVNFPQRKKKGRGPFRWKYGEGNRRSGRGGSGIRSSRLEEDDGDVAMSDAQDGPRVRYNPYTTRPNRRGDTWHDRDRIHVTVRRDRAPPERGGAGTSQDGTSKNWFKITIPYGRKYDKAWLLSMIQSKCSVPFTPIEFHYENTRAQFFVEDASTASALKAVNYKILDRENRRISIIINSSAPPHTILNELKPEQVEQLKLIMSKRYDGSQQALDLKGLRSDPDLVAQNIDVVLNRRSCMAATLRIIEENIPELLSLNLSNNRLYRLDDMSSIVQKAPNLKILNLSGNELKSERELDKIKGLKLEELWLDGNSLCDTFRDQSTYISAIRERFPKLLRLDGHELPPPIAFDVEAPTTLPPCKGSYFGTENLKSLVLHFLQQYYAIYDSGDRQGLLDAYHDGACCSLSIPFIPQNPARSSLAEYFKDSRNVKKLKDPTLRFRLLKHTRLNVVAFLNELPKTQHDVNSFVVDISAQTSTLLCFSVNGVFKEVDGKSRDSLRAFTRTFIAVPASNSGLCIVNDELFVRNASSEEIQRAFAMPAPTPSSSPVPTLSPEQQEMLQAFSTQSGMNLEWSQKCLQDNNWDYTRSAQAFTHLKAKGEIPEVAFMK", "T1 sequence 2": "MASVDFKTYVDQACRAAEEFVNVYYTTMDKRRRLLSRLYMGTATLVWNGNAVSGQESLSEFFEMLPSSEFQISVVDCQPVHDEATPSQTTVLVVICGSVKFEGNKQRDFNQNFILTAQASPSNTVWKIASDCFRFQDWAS", "assay": "pull-down; Nxf1 remodelling assay: Luzp4 pre-incubated with a 32P-labelled RNA oligonucleotide, incubated with immobilized GST or GST-Nxf1:p15, complexes purified by GST pull-down and eluted; both purified"}, "GST-Nxf1:p15 [2]": {"target": "T1, GST-Nxf1:p15", "assay": "pull-down; GST fusions as bait, purified Luzp4 produced in E. coli as prey; RB100 buffer (25 mM HEPES pH 7.5, 100 mM KOAc, 10 mM MgCl2, 1 mM dithiothreitol, 0.05% Triton X-100, 10% glycerol, 10 μg/ml RNase A); both purified"}, "GST-Uap56 [3]": {"target": "GST-Uap56 (UniProt Q13838)", "assay": "pull-down; GST fusions as bait, purified Luzp4 produced in E. coli as prey; RB100 buffer (25 mM HEPES pH 7.5, 100 mM KOAc, 10 mM MgCl2, 1 mM dithiothreitol, 0.05% Triton X-100, 10% glycerol, 10 μg/ml RNase A); both purified"}, "GST-Nxf1:p15 [4]": {"target": "T1, GST-Nxf1:p15", "assay": "pull-down; GST-Nxf1:p15 or GST-Uap56 as bait, 35S-labelled Luzp4 truncations as prey, phosphoimage; RB100 buffer with 10 μg/ml RNase A; only the target purified"}, "GB1-Nxf1 aa 1–198": {"target": "T2, GB1-Nxf1 aa 1–198 (UniProt Q9UBU9)", "T2 sequence": "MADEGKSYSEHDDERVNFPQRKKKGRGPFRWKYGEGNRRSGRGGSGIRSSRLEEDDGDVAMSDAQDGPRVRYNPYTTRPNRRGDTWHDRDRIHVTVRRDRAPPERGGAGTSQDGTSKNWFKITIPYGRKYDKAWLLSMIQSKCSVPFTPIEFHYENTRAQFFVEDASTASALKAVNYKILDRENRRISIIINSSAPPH", "assay": "pull-down; IgG-Sepharose pull-down, purified GB1-tagged Nxf1 proteins as bait, 35S-Luzp4 as prey, phosphoimage; only the target purified"}, "FLAG-Nxf1-myc": {"target": "T3, FLAG-Nxf1-myc (UniProt Q9UBU9)", "T3 sequence": "T1 sequence 1", "assay": "co-IP; FLAG-tagged baits expressed in human cells; IP lysis buffer (50 mM HEPES pH 7.5, 100 mM NaCl, 1 mM EDTA, 1 mM dithiothreitol, 0.5% Triton X-100, 10% glycerol), with or without 10 μg/ml RNase A; western blot"}, "FLAG-Uap56-myc": {"target": "FLAG-Uap56-myc (UniProt Q13838)", "assay": "co-IP; FLAG-tagged baits expressed in human cells; IP lysis buffer (50 mM HEPES pH 7.5, 100 mM NaCl, 1 mM EDTA, 1 mM dithiothreitol, 0.5% Triton X-100, 10% glycerol), with or without 10 μg/ml RNase A; western blot"}, "Nxf2 (human)": {"target": "T4, Nxf2 (human) (UniProt Q9GZY0)", "T4 sequence": "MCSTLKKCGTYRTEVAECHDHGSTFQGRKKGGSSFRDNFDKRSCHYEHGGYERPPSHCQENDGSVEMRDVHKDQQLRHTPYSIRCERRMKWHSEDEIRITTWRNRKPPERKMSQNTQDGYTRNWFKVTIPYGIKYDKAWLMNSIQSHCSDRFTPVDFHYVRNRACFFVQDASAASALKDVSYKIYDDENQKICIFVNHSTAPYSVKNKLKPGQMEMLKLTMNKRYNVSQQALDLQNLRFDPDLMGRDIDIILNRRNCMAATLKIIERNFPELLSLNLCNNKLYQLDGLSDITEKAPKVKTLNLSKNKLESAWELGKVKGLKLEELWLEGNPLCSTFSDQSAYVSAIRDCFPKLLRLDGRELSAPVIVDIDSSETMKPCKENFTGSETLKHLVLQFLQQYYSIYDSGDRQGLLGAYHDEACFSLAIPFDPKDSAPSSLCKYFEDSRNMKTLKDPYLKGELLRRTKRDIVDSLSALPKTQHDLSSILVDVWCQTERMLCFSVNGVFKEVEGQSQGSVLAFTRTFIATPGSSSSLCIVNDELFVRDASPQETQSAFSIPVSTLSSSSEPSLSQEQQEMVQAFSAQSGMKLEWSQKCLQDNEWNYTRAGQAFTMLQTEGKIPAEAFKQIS", "assay": "co-IP; Supplementary Figure S2A; constructs and cells not told in the text shown"}, "GST-Uap56 [5]": {"target": "GST-Uap56 (UniProt Q13838)", "assay": "pull-down; GST-Nxf1:p15 or GST-Uap56 as bait, 35S-labelled Luzp4 truncations as prey, phosphoimage; RB100 buffer with 10 μg/ml RNase A; only the target purified"}}, "note": "No constants are given. Whether binding was seen depends on the method and setting. For some of these results: In cells and extracts the contact can be indirect. Some results given as binding are weak or reduced against the parent protein; the word gives no strength. For some of these results: Tags and fused reporters may be left off the sequences shown.", "data": [{"binder": "B1", "values": [{"measurement": "binding", "setting": "GST-Nxf1:p15 [1]", "result": "binds"}, {"measurement": "binding", "setting": "GST-Nxf1:p15 [2]", "result": "binds"}, {"measurement": "binding", "setting": "GST-Uap56 [3]", "result": "binds"}]}, {"binder": "B2", "values": [{"measurement": "binding", "setting": "GST-Nxf1:p15 [4]", "result": "binds weakly"}]}, {"binder": "B3", "values": [{"measurement": "binding", "setting": "GB1-Nxf1 aa 1–198", "result": "binds"}]}, {"binder": "B4", "values": [{"measurement": "binding", "setting": "FLAG-Nxf1-myc", "result": "binds"}, {"measurement": "binding", "setting": "FLAG-Uap56-myc", "result": "binds"}]}, {"binder": "B5", "values": [{"measurement": "binding", "setting": "Nxf2 (human)", "result": "binds"}]}, {"binder": "B6", "values": [{"measurement": "binding", "setting": "GST-Uap56 [5]", "result": "binds"}]}, {"binder": "B7", "values": [{"measurement": "binding", "setting": "GST-Uap56 [5]", "result": "no binding"}]}]}
